Source: PMC5047623 (PLoS ONE, 2016)

Molecular target: full-length flag-tagged integrin α5ß1 (human, UniProt P08648 42-1049; P05556)
Test: cell-based or functional assay

Chain of UniProt P08648 (P08648 42-1049, chain 1 of 2): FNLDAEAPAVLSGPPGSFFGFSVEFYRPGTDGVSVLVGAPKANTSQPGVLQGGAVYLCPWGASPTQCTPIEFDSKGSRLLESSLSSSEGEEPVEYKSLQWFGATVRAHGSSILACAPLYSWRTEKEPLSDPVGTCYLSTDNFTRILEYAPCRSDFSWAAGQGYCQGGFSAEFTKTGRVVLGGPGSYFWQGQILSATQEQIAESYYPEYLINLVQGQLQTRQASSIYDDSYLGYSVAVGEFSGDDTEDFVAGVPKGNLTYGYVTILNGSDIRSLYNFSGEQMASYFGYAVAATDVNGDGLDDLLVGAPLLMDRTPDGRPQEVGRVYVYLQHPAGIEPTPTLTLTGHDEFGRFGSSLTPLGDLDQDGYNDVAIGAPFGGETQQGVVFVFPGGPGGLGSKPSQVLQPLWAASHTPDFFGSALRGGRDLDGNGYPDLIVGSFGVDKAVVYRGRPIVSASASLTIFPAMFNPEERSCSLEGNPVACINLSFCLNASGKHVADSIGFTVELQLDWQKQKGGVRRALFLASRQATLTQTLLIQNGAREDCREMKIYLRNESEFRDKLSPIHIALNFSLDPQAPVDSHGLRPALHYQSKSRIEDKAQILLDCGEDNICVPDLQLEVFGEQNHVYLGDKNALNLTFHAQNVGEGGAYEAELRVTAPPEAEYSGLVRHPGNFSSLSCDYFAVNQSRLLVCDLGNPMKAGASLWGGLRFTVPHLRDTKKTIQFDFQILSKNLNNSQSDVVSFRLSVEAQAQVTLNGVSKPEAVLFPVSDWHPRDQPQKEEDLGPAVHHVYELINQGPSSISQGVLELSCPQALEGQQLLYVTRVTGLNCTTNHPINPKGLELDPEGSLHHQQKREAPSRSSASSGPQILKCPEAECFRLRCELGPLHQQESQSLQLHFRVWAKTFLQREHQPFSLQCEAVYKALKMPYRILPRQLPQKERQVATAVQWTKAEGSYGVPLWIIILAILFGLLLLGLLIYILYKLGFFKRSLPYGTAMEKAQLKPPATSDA
Chain of UniProt P08648 (P05556 21-798, chain 2 of 2, further chain): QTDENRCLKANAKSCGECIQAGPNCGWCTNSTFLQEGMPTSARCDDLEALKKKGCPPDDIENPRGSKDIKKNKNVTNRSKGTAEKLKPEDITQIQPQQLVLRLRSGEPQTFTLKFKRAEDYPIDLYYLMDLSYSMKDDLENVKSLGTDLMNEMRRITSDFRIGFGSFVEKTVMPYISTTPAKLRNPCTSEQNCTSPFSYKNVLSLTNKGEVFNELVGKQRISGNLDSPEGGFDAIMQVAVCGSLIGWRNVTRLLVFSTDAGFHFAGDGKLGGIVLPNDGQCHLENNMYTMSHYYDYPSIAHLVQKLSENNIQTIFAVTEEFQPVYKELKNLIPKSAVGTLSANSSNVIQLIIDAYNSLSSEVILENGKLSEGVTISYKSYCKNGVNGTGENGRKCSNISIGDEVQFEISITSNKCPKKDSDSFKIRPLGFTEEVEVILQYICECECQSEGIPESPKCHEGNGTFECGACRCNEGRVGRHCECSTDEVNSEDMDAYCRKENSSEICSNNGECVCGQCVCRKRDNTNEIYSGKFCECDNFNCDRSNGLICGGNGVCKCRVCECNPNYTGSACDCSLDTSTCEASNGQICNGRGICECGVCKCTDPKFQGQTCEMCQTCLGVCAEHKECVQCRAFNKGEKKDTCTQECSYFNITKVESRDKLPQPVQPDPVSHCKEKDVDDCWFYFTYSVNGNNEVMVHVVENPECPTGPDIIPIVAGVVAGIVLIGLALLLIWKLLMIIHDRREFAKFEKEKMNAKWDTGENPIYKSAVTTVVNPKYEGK

B1: full-length myc-tagged Tie2 receptor (receptor, UniProt Q02763 23-1124, looked up)
chain: AMDLILINSLPLVSDAETSLTCIASGWRPHEPITIGRDFEALMNQHQDPLEVTQDVTREWAKKVVWKREKASKINGAYFCEGRVRGEAIRIRTMKMRQQASFLPATLTMTVDKGDNVNISFKKVLIKEEDAVIYKNGSFIHSVPRHEVPDILEVHLPHAQPQDAGVYSARYIGGNLFTSAFTRLIVRRCEAQKWGPECNHLCTACMNNGVCHEDTGECICPPGFMGRTCEKACELHTFGRTCKERCSGQEGCKSYVFCLPDPYGCSCATGWKGLQCNEACHPGFYGPDCKLRCSCNNGEMCDRFQGCLCSPGWQGLQCEREGIQRMTPKIVDLPDHIEVNSGKFNPICKASGWPLPTNEEMTLVKPDGTVLHPKDFNHTDHFSVAIFTIHRILPPDSGVWVCSVNTVAGMVEKPFNISVKVLPKPLNAPNVIDTGHNFAVINISSEPYFGDGPIKSKKLLYKPVNHYEAWQHIQVTNEIVTLNYLEPRTEYELCVQLVRRGEGGEGHPGPVRRFTTASIGLPPPRGLNLLPKSQTTLNLTWQPIFPSSEDDFYVEVERRSVQKSDQQNIKVPGNLTSVLLNNLHPREQYVVRARVNTKAQGEWSEDLTAWTLSDILPPQPENIKISNITHSSAVISWTILDGYSISSITIRYKVQGKNEDQHVDVKIKNATITQYQLKGLEPETAYQVDIFAENNIGSSNPAFSHELVTLPESQAPADLGGGKMLLIAILGSAGMTCLTVLLAFLIILQLKRANVQRRMAQAFQNVREEPAVQFNSGTLALNRKVKNNPDPTIYPVLDWNDIKFQDVIGEGNFGQVLKARIKKDGLRMDAAIKRMKEYASKDDHRDFAGELEVLCKLGHHPNIINLLGACEHRGYLYLAIEYAPHGNLLDFLRKSRVLETDPAFAIANSTASTLSSQQLLHFAADVARGMDYLSQKQFIHRDLAARNILVGENYVAKIADFGLSRGQEVYVKKTMGRLPVRWMAIESLNYSVYTTNSDVWSYGVLLWEIVSLGGTPYCGMTCAELYEKLPQGYRLEKPLNCDDEVYDLMRQCWREKPYERPSFAQILVSLNRMLEERKTYVNTTLYEKFTYAGIDCSAEEAA
**Q.** How did the “MAPK (ERK1/2 T202/Y204) phosphorylation in TIME endothelial cells plated 15 minutes on fibronectin with 500 ng/mL Ang-1, against vehicle” value turn out when B1 was run?
**A.** ~1.6 fold
